Results: paper PMC7737610
Like-named read-outs stand apart in the source and are kept apart here. These are yes or no findings as the source states them, for the method shown. In cells and extracts the contact can be indirect. Some binding calls cover weakened binding; strength is not graded here. For part of these data: Sequences can lack the tags named with a protein. Blank lines part the entries; values can stand above or below the molecule they belong to.

Amino acid sequences for entries named in this document (tags omitted).
UniProt Q8TDY2: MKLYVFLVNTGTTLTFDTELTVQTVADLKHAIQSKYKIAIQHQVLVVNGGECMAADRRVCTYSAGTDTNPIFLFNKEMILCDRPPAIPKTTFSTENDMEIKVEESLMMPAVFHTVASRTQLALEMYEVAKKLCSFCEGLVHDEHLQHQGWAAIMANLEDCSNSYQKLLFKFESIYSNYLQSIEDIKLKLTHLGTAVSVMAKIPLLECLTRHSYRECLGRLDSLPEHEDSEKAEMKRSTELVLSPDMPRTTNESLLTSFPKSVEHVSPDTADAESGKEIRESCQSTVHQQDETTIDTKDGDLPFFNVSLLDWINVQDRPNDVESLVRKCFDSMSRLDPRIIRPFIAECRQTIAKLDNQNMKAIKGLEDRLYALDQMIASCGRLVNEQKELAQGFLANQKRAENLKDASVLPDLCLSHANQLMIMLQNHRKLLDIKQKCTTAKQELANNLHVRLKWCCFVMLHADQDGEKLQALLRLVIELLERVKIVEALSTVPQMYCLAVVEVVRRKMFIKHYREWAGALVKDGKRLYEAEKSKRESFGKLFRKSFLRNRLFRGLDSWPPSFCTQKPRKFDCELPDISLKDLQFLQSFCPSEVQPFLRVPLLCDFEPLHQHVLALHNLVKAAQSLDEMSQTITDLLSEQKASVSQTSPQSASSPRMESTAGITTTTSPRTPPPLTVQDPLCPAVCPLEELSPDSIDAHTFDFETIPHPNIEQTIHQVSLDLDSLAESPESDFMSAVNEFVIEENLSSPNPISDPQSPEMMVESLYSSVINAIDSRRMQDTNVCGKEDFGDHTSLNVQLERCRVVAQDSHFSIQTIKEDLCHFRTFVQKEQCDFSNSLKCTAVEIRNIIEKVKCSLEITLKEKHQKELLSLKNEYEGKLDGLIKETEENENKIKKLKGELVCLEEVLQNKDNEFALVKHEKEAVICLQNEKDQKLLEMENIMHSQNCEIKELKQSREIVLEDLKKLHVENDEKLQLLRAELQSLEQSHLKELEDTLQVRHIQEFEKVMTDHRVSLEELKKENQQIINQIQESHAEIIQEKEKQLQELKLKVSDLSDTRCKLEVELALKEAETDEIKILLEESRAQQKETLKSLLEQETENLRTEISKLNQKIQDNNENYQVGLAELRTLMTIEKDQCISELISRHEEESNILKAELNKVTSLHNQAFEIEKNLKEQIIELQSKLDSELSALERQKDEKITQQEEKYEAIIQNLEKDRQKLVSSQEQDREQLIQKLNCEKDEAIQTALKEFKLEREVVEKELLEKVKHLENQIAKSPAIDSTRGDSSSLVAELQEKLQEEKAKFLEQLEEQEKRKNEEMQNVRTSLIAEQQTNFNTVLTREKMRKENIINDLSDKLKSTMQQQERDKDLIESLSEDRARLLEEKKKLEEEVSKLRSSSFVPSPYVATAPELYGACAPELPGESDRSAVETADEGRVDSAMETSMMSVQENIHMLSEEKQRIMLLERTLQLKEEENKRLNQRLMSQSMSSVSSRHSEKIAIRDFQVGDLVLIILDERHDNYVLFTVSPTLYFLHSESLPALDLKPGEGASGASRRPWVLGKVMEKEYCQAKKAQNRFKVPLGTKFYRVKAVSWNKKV
UniProt P10155: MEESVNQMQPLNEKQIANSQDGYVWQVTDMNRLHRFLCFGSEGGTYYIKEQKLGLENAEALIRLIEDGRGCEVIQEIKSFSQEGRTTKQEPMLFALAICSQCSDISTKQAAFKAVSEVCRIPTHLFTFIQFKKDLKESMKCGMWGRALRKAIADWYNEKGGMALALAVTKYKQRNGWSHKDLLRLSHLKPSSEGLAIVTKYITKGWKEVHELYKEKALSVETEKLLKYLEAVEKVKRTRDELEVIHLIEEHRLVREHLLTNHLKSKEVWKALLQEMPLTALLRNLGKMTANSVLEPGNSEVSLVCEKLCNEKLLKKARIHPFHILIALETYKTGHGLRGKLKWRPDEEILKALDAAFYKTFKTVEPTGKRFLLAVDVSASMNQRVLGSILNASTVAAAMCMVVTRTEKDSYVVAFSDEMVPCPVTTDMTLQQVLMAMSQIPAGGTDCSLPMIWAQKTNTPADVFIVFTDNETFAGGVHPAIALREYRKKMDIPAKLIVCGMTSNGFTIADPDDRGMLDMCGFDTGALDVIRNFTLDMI

Key:
[1] = target: TagBFP-V5-TAX1BP1, wild type (UniProt Q86VP1); assay: co-IP; HEK293T cells transfected with TagBFP-V5-TAX1BP1 variants (with myc-TAX1BP1 WT, myc-NBR1 WT or HA-FIP200 where indicated); extracts precipitated with anti-TagBFP magnetic beads; eluates immunoblotted
TagBFP-V5-TAX1BP1^1–506 = TagBFP-V5-TAX1BP1^1–506 (UniProt Q86VP1); assay: as above
TagBFP-V5-TAX1BP1^A114Q = TagBFP-V5-TAX1BP1^A114Q (UniProt Q86VP1); assay: as above
[2] = target: T1, tf-NBR1 (tandem-fluorescent RFP-GFP fusion of NBR1) (UniProt Q14596); assay: co-IP; tf-tagged receptor precipitated with GFP-Trap dynabeads from detergent-solubilized K562 extracts (wild type and ATG deletion lines, among them ATG9A KO and FIP200 KO); 50 mM HEPES pH 7.4, 150 mM NaCl, 2 mM EDTA, 1% Triton X-100; 1 h at 4°C; eluate immunoblotted
T1 sequence: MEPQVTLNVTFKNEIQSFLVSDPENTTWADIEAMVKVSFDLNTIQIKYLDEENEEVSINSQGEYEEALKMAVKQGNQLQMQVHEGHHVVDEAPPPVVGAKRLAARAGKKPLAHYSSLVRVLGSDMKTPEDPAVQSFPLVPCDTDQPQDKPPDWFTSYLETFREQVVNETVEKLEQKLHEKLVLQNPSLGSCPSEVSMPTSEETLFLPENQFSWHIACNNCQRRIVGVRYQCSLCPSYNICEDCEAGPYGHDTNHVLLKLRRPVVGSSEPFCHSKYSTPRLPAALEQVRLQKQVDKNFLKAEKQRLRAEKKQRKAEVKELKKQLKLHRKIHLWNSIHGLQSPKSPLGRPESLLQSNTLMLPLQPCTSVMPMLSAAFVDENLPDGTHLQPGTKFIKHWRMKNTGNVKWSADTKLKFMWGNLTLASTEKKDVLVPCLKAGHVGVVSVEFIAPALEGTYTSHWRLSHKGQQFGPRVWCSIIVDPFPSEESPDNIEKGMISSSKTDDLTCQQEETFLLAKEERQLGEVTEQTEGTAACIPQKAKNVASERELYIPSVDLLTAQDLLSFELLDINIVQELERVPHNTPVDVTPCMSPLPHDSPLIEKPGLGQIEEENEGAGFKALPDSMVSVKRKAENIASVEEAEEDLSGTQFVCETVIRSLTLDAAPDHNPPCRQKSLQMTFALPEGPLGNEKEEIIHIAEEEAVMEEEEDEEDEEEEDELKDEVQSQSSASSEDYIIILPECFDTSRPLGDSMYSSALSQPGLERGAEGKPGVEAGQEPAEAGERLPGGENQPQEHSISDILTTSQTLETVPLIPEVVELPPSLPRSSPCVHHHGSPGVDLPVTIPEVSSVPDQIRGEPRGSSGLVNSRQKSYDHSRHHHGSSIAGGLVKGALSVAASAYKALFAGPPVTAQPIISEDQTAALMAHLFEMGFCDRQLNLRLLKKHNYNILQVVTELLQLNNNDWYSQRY

[3] = target: tf-TAX1BP1 (tandem-fluorescent RFP-GFP fusion of TAX1BP1) (UniProt Q86VP1); assay: as above
[4] = target: TagBFP-V5-TAX1BP1, wild type (UniProt Q86VP1); assay: co-IP; HEK293T cells transfected with TagBFP-V5-TAX1BP1 variants (with myc-TAX1BP1 WT, myc-NBR1 WT or HA-FIP200 where indicated); extracts precipitated with anti-TagBFP magnetic beads; eluates immunoblotted; remark: listed apart in the source

- binding [1]: binds
- binding (TagBFP-V5-TAX1BP1^1–506): binds
Molecule: myc-TAX1BP1^WT (from UniProt Q86VP1-1 1-789)

- binding (TagBFP-V5-TAX1BP1^A114Q): no binding
Molecule: HA-FIP200 (from UniProt Q8TDY2 1-1594)

- binding [2]: binds
Molecule: TROVE2, endogenous (from UniProt P10155 1-538)

- binding [3]: binds
Molecule: SQSTM1, endogenous (from UniProt Q13501 1-440)

- binding [2]: binds
Molecule: TAX1BP1, endogenous (from UniProt Q86VP1-1 1-789)

- binding [3]: no binding
- binding [2]: no binding
B1: NDP52, endogenous (protein, UniProt Q13137 1-446)
chain: MEETIKDPPTSAVLLDHCHFSQVIFNSVEKFYIPGGDVTCHYTFTQHFIPRRKDWIGIFRVGWKTTREYYTFMWVTLPIDLNNKSAKQQEVQFKAYYLPKDDEYYQFCYVDEDGVVRGASIPFQFRPENEEDILVVTTQGEVEEIEQHNKELCKENQELKDSCISLQKQNSDMQAELQKKQEELETLQSINKKLELKVKEQKDYWETELLQLKEQNQKMSSENEKMGIRVDQLQAQLSTQEKEMEKLVQGDQDKTEQLEQLKKENDHLFLSLTEQRKDQKKLEQTVEQMKQNETTAMKKQQELMDENFDLSKRLSENEIICNALQRQKERLEGENDLLKRENSRLLSYMGLDFNSLPYQVPTSDEGGARQNPGLAYGNPYSGIQESSSPSPLSIKKCPICKADDICDHTLEQQQMQPLCFNCPICDKIFPATEKQIFEDHVFCHSL

- binding [4]: binds
B2: TBK1 (enzyme, UniProt Q9UHD2 1-729)
chain: MQSTSNHLWLLSDILGQGATANVFRGRHKKTGDLFAIKVFNNISFLRPVDVQMREFEVLKKLNHKNIVKLFAIEEETTTRHKVLIMEFCPCGSLYTVLEEPSNAYGLPESEFLIVLRDVVGGMNHLRENGIVHRDIKPGNIMRVIGEDGQSVYKLTDFGAARELEDDEQFVSLYGTEEYLHPDMYERAVLRKDHQKKYGATVDLWSIGVTFYHAATGSLPFRPFEGPRRNKEVMYKIITGKPSGAISGVQKAENGPIDWSGDMPVSCSLSRGLQVLLTPVLANILEADQEKCWGFDQFFAETSDILHRMVIHVFSLQQMTAHKIYIHSYNTATIFHELVYKQTKIISSNQELIYEGRRLVLEPGRLAQHFPKTTEENPIFVVSREPLNTIGLIYEKISLPKVHPRYDLDGDASMAKAITGVVCYACRIASTLLLYQELMRKGIRWLIELIKDDYNETVHKKTEVVITLDFCIRNIEKTVKVYEKLMKINLEAAELGEISDIHTKLLRLSSSQGTIETSLQDIDSRLSPGGSLADAWAHQEGTHPKDRNVEKLQVLLNCMTEIYYQFKKDKAERRLAYNEEQIHKFDKQKLYYHATKAMTHFTDECVKKYEAFLNKSEEWIRKMLHLRKQLLSLTNQCFDIEEEVSKYQEYTNELQETLPQKMFTASSGIKHTMTPIYPSSNTLVEMTLGMKKLKEEMEGVVKELAENNHILERFGSLTMDGGLRNVDCL
